Test system: adult patients with uncontrolled gout
Assay: Open-label study of pegloticase with MTX: serum uric acid observed values and change from baseline
Format: in vivo, human
Text: KXX treatment typically is monitored using regular determination of the patient's SUA levels. A reduction in the serum uric acid level relative to the SUA in the patient before KXX treatment may generally be indicative of successful treatment with KXX, alone, or co-administered with an immunosuppressive agent or therapy, such as MTX, as described herein. Collection and measurement of a patient's serum uric acid levels are known to those of skill in the art. In some embodiments, the patient's serum uric acid levels are assayed before each KXX therapy. In some embodiments, any suitable method for collecting appropriate samples and methods of measuring or quantifying uric acid levels may be used in accordance with the disclosure.
Criteria for Evaluation: Efficacy was assessed by SUA levels, tender and swollen joint counts, patient and physician global assessments of gout, joint pain, and DECT.
Patients were administered oral MTX (15 mg/week) and folate (1 mg/day) 4 weeks prior to the first pegloticase infusion (Day 1) and throughout the pegloticase treatment period. Blood was drawn prior to each infusion to measure sUA level, monitor clinical parameters, and examine for ADA development. All patients followed typical IR prophylaxis protocols (fexofenadine one day before and the morning of each infusion and acetaminophen and IV corticosteroid the morning of each infusion). […] The primary study outcome was the proportion of responders, defined as sUA<6 mg/dL for at least 80% of the time during month 6 (weeks 20, 22, and 24). All analyses were performed on a modified intent-to-treat population, defined as patients who received ≥1 pegloticase infusion.

[1] = End of Pegloticase Infusions Visit
[2] = Month 6 sUA non-responders, Week 1, n=2
[3] = Month 6 sUA non-responders, Week 2 - Post-Infusion, n=3
[4] = Month 6 sUA non-responders, Week 4 - Post-Infusion, n=2
[5] = Month 6 sUA non-responders, Week 6 - Post-Infusion, n=1
[6] = Month 6 sUA non-responders, Week 8 - Post-Infusion, n=1
[7] = Month 6 sUA non-responders, Week 8 - Pre-Infusion, n=1
[8] = Month 6 sUA responders, Day 1 - Post-Infusion, n=8
[9] = Month 6 sUA responders, End of Pegloticase Infusions Visit, n=2
[10] = Month 6 sUA responders, Week 1, n=4
[11] = Month 6 sUA responders, Week 2 - Post-Infusion, n=11
[12] = Month 6 sUA responders, Week 2 - Pre-Infusion, n=11
[13] = Month 6 sUA responders, Week 4 - Post-Infusion, n=11
[14] = Month 6 sUA responders, Week 4 - Pre-Infusion, n=11
[15] = Month 6 sUA responders, Week 6 - Post-Infusion, n=11
[16] = Month 6 sUA responders, Week 6 - Pre-Infusion, n=11
[17] = Month 6 sUA responders, Week 7, n=4
[18] = Month 6 sUA responders, Week 8 - Post-Infusion, n=11
[19] = Month 6 sUA responders, Week 10 - Post-Infusion, n=11
[20] = Month 6 sUA responders, Week 10 - Pre-Infusion, n=11
[21] = Month 6 sUA responders, Week 12 - Post-Infusion, n=10
[22] = Month 6 sUA responders, Week 12 - Pre-Infusion, n=11
[23] = Month 6 sUA responders, Week 14 - Post-Infusion, n=10
[24] = Month 6 sUA responders, Week 14 - Pre-Infusion, n=11
[25] = Month 6 sUA responders, Week 16 - Post-Infusion, n=11
[26] = Month 6 sUA responders, Week 16 - Pre-Infusion, n=11
[27] = Month 6 sUA responders, Week 18 - Post-Infusion, n=11
[28] = Month 6 sUA responders, Week 18 - Pre-Infusion, n=11
[29] = Month 6 sUA responders, Week 20 - Post-Infusion, n=11
[30] = Month 6 sUA responders, Week 20 - Pre-Infusion, n=11
[31] = Month 6 sUA responders, Week 22 - Post-Infusion, n=11
[32] = Month 6 sUA responders, Week 22 - Pre-Infusion, n=11
[33] = Month 6 sUA responders, Week 24 - Post-Infusion, n=5
[34] = Month 6 sUA responders, Week 24 - Pre-Infusion, n=11
[35] = Month 6 sUA responders, Week 26 - Pre-Infusion, n=8
[36] = Month 6 sUA responders, Week 28 - Pre-Infusion, n=8
[37] = Month 6 sUA responders, Week 30 - Pre-Infusion, n=8
[38] = Month 6 sUA responders, Week 32 - Post-Infusion, n=8
[39] = Month 6 sUA responders, Week 32 - Pre-Infusion, n=10
[40] = Month 6 sUA responders, Week 34 - Post-Infusion, n=8
[41] = Month 6 sUA responders, Week 34 - Pre-Infusion, n=10
[42] = Month 6 sUA responders, Week 36 - Post-Infusion, n=6
[43] = Month 6 sUA responders, Week 38 - Pre-Infusion, n=5
[44] = Month 6 sUA responders, Week 40 - Pre-Infusion, n=3
[45] = Month 6 sUA responders, Week 42 - Pre-Infusion, n=3
[46] = Month 6 sUA responders, Week 44 - Pre-Infusion, n=3

## pegloticase
Day 1 - Post-Infusion
  sUA < 6 mg/dL, %: (100%)
  sUA Change from Baseline, Mean: -7.29 mg/dL
  sUA observed, mean: 1.18 mg/dL
  sUA observed, median: 0.30 mg/dL
Early Termination Visit
  sUA change from baseline, median: -0.20 mg/dL
[1]
  sUA < 6 mg/dL, %: (100%)
  sUA observed, mean: 0.30 mg/dL
  sUA observed, median: 0.30 mg/dL
Month 6 sUA non-responders, Day 1 - Post-Infusion, n=3
  sUA < 6 mg/dL, %: (100%)
Month 6 sUA non-responders, Early Termination Visit, n=3
  sUA change from baseline, median: -0.20 mg/dL
[2]
  sUA < 6 mg/dL, %: (100%)
  sUA observed, mean: 0.30 mg/dL
  sUA observed, median: 0.30 mg/dL
[3]
  sUA < 6 mg/dL, %: (100%)
  sUA observed, mean: 0.30 mg/dL
  sUA observed, median: 0.30 mg/dL
[4]
  sUA < 6 mg/dL, %: (100%)
  sUA observed, mean: 0.30 mg/dL
  sUA observed, median: 0.30 mg/dL
[5]
  sUA < 6 mg/dL, %: (100%)
  sUA observed, mean: 0.30 mg/dL
  sUA observed, median: 0.30 mg/dL
Month 6 sUA non-responders, Week 6 - Pre-Infusion, n=2
  sUA < 6 mg/dL, %: (50.0%)
[6]
  sUA < 6 mg/dL, %: (100%)
  sUA observed, mean: 0.30 mg/dL
[7]
  sUA Change from Baseline, Mean: -0.50 mg/dL
  sUA change from baseline, median: -0.50 mg/dL
[8]
  sUA < 6 mg/dL, %: (100%)
  sUA observed, median: 0.30 mg/dL
[9]
  sUA < 6 mg/dL, %: (100%)
  sUA observed, mean: 0.30 mg/dL
  sUA observed, median: 0.30 mg/dL
[10]
  sUA < 6 mg/dL, %: (100%)
  sUA observed, mean: 0.30 mg/dL
  sUA observed, median: 0.30 mg/dL
[11]
  sUA < 6 mg/dL, %: (100%)
  sUA observed, mean: 0.30 mg/dL
  sUA observed, median: 0.30 mg/dL
[12]
  sUA < 6 mg/dL, %: (100%)
  sUA observed, median: 0.30 mg/dL
[13]
  sUA < 6 mg/dL, %: (100%)
  sUA observed, mean: 0.30 mg/dL
  sUA observed, median: 0.30 mg/dL
[14]
  sUA < 6 mg/dL, %: (100%)
  sUA observed, median: 0.30 mg/dL
[15]
  sUA < 6 mg/dL, %: (100%)
  sUA observed, mean: 0.30 mg/dL
  sUA observed, median: 0.30 mg/dL
[16]
  sUA < 6 mg/dL, %: (100%)
  sUA observed, mean: 0.30 mg/dL
  sUA observed, median: 0.30 mg/dL
[17]
  sUA < 6 mg/dL, %: (100%)
  sUA observed, mean: 0.30 mg/dL
  sUA observed, median: 0.30 mg/dL
[18]
  sUA < 6 mg/dL, %: (100%)
  sUA observed, mean: 0.30 mg/dL
Month 6 sUA responders, Week 8 - Pre-Infusion, n=11
  sUA < 6 mg/dL, %: (100%)
[19]
  sUA < 6 mg/dL, %: (100%)
  sUA observed, mean: 0.30 mg/dL
  sUA observed, median: 0.30 mg/dL
[20]
  sUA < 6 mg/dL, %: (100%)
  sUA observed, mean: 0.30 mg/dL
[21]
  sUA < 6 mg/dL, %: (100%)
  sUA observed, mean: 0.30 mg/dL
  sUA observed, median: 0.30 mg/dL
[22]
  sUA < 6 mg/dL, %: (100%)
  sUA observed, mean: 0.30 mg/dL
  sUA observed, median: 0.30 mg/dL
[23]
  sUA < 6 mg/dL, %: (100%)
  sUA observed, mean: 0.30 mg/dL
  sUA observed, median: 0.30 mg/dL
[24]
  sUA < 6 mg/dL, %: (100%)
  sUA observed, mean: 0.30 mg/dL
  sUA observed, median: 0.30 mg/dL
[25]
  sUA < 6 mg/dL, %: (100%)
  sUA observed, mean: 0.30 mg/dL
  sUA observed, median: 0.30 mg/dL
[26]
  sUA < 6 mg/dL, %: (100%)
  sUA observed, mean: 0.30 mg/dL
  sUA observed, median: 0.30 mg/dL
[27]
  sUA < 6 mg/dL, %: (100%)
  sUA observed, mean: 0.30 mg/dL
  sUA observed, median: 0.30 mg/dL
[28]
  sUA < 6 mg/dL, %: (100%)
  sUA observed, mean: 0.30 mg/dL
  sUA observed, median: 0.30 mg/dL
[29]
  sUA < 6 mg/dL, %: (100%)
  sUA observed, mean: 0.30 mg/dL
  sUA observed, median: 0.30 mg/dL
[30]
  sUA < 6 mg/dL, %: (100%)
  sUA observed, mean: 0.30 mg/dL
  sUA observed, median: 0.30 mg/dL
[31]
  sUA < 6 mg/dL, %: (100%)
  sUA observed, mean: 0.30 mg/dL
  sUA observed, median: 0.30 mg/dL
[32]
  sUA < 6 mg/dL, %: (100%)
  sUA observed, mean: 0.30 mg/dL
  sUA observed, median: 0.30 mg/dL
[33]
  sUA < 6 mg/dL, %: (100%)
  sUA observed, mean: 0.30 mg/dL
  sUA observed, median: 0.30 mg/dL
[34]
  sUA < 6 mg/dL, %: (100%)
  sUA observed, mean: 0.30 mg/dL
  sUA observed, median: 0.30 mg/dL
[35]
  sUA < 6 mg/dL, %: (100%)
  sUA observed, mean: 0.30 mg/dL
  sUA observed, median: 0.30 mg/dL
[36]
  sUA < 6 mg/dL, %: (100%)
  sUA observed, mean: 0.30 mg/dL
  sUA observed, median: 0.30 mg/dL
[37]
  sUA < 6 mg/dL, %: (100%)
  sUA observed, mean: 0.30 mg/dL
  sUA observed, median: 0.30 mg/dL
[38]
  sUA < 6 mg/dL, %: (100%)
  sUA observed, mean: 0.30 mg/dL
  sUA observed, median: 0.30 mg/dL
[39]
  sUA < 6 mg/dL, %: (100%)
  sUA observed, mean: 0.30 mg/dL
  sUA observed, median: 0.30 mg/dL
[40]
  sUA < 6 mg/dL, %: (100%)
  sUA observed, mean: 0.30 mg/dL
  sUA observed, median: 0.30 mg/dL
[41]
  sUA < 6 mg/dL, %: (100%)
  sUA observed, median: 0.30 mg/dL
[42]
  sUA < 6 mg/dL, %: (100%)
  sUA observed, mean: 0.30 mg/dL
  sUA observed, median: 0.30 mg/dL
Month 6 sUA responders, Week 36 - Pre-Infusion, n=9
  sUA observed, median: 0.30 mg/dL
[43]
  sUA < 6 mg/dL, %: (100%)
  sUA observed, median: 0.30 mg/dL
[44]
  sUA < 6 mg/dL, %: (100%)
  sUA observed, mean: 0.30 mg/dL
  sUA observed, median: 0.30 mg/dL
[45]
  sUA < 6 mg/dL, %: (100%)
  sUA observed, mean: 0.30 mg/dL
  sUA observed, median: 0.30 mg/dL
[46]
  sUA < 6 mg/dL, %: (100%)
  sUA observed, median: 0.30 mg/dL
Month 6 sUA responders, Week 46 - Pre-Infusion, n=2
  sUA < 6 mg/dL, %: (100%)
